The values below come from the RNAGym collection of RNA variant scans (doi:10.7554/elife.90254).

B1: LINE1-full (parent)
chain: UACGUAGGUGGUUUUCCCCUGAUAGUGCUAAGGGGGCCUGGAAGUUUGGACUGGGCAGAGCUCAACACAGCGUGGCAAAGUGGCUGUGGCUAGACUGCCUCUCUGGAUUCCUCGUCACUCAGCAGGGCAUCUCUGAGAGAAAUGCC

The source gives no read counts; variants with many changes may rest on few reads.

The variants in the data set derive from B1. Put plainly: self-cleavage, relative activity (ratio to wild type); higher = more cleavage; in vitro, sequencing; the parent is a self-cleaving ribozyme.
As for U9A A31G C131U, the self-cleavage came to 1.06. The same measure for U9A U13A G58A G72A A136U: 0.07; for A6G U12A U119C: 1.31. On to G8U U39C A124G A141G, for which the self-cleavage was 1.84.

Turning to A6U A69G A94G U132C, the self-cleavage is 0.92. To U9A A65G C98A belongs 0.15. With G7A U9C U96G U108C, the self-cleavage is 0. To U9A U15C A24C G32A A129G belongs 0.5; to G7A U26C G33A U45A A69G A94G, 0.19.

Turning to A6U U62A G106A C111U A138U, the self-cleavage was 0.14. For the variant G7C U39A G72A, the self-cleavage came out at 1.74. For U9A A69U U73C, the self-cleavage worked out at 0.06. To U9A U14C U52G belongs 0.68; to U9A U13A U23A A117G C123U, 1.04. The same measure for U9A U15C A64G A141G: 0.38; for A6U G41U U46C: 1.1. As for A6U U12G A43G, the self-cleavage was found to be 0. The same measure for A6G U119C U132C: 0.94; for A6G U102C U119A: 1.19.

Regarding U9A U14C U96A, the self-cleavage turned out to be 0. The same measure for A6U U39C C90U: 0.2; for U9A A67U U96C A142G: 0; for G7U U46C G82U U143A: 1.25. To U9A U15G U96C belongs 0.17; to A6G U12C U39A, 0.96. To G7A U62A A64G belongs 0.1. As for G8A A69U U81C U109C, the self-cleavage is 0. For the variant A6G U29A A31U C66U A67U, the self-cleavage is 0.33. As to A6U C71A A121G, the self-cleavage turned out to be 0.75. To A6G G54A U104A A124C A138G belongs 0.42. Consider G7U U39C A140G, for which the self-cleavage was found to be 1.2. Regarding G7C G21A U104C A136G, the self-cleavage was 1.27. For the variant U9A A69G G82A A140G, the self-cleavage is 0.34. Take G8A A138G A140G A141G: the self-cleavage turned out to be 0.79. In the case of A6U G75A A92G U130A, the self-cleavage is 0.06. The same measure for G7A A121C A136G: 1.3; for A6G U14C U46C: 0.75; for U9A G105A U108C: 1.22. To A6U U26C A77G belongs 1.09; to A6U U20A A64U U143A, 0.6; to U9A A67G U100C A124G, 0. The same measure for U9A U13C U85C G114A U119C G126U: 0.07; for A6G U13C G89A: 0.18.

As for U9A U20C U100C, the self-cleavage turned out to be 2.63. As to A6G U12C G74A A79U U100C, the self-cleavage turned out to be 1.

With G7A U96C A107G, the self-cleavage is 0.05. G7A U26A U47C U87A U104C: the self-cleavage stood at 0.11. To U9A A64C A67G U81A A129G belongs 0; to G7A U13C U100C, 2.54; to G7A U26C A59U U81C, 0. For U9A A67U A129G, the self-cleavage turned out to be 0.

On to A6G U46C A65G, for which the self-cleavage is 0.25. To U9A U14C A31U G97A belongs 0.06; to A6G U45C A50U C99U U130C, 0.09.

Take U9A U29C U62C A124U A129G: the self-cleavage came to 0. The same measure for A6G U20C U96C: 0.85; for A6U U132C U134A A136U: 0. In the case of G8C U115A A142G, the self-cleavage was 2.83. The same measure for G7C U39C A43U A94C: 0.71; for U9A G32A A64G U100C C146U: 0.53. With U9A A31C A121G A140G, the self-cleavage turned out to be 1.67. To U9A A24U U26A belongs 1.05; to A6G U26A U85A A107G A138G, 1.04; to U9A U23C A57U, 0.02.

In the case of A6G G58U A59G G86A U96C U108C, the self-cleavage came to 0.25.

On to A6G U102A A117G, for which the self-cleavage stood at 1.58. The same measure for A6U A94U U130C: 0.36; for U9A U29C C110A: 0.82; for U9A A78U U134C: 0.75. The same measure for A6U A22G G34A U47C: 0.74.

For A6G U91C A121G, the self-cleavage is 0.88. To U9A U12C U15C belongs 0.77; to A6G U13C U112C A142G, 0.95. In the case of U9A U13C U14C A50G U87C G127A, the self-cleavage worked out at 0.17. The same measure for G7C U14C A65G U85C: 1.67; for G7A U12C G82A U102C: 2.26; for G7A U26A A64G G126A: 0.09.

In the case of U9A C68U A138G U143C, the self-cleavage was determined as 0.14. Take G7U C19U U102C A107G: the self-cleavage was found to be 1.02. Turning to G8C U23C U45A U132C, the self-cleavage came out at 1.53. To U9A U26A U100C belongs 1.25; to G7A U15A A92U, 0.33; to U9A C66U A121G A140G, 0.1. The same measure for A6U C19U U85C A129G: 0.48. On to G7U U26C U96C, for which the self-cleavage came to 0.24. Turning to U9A U13C U73G, the self-cleavage came to 0.57. The same measure for U9A U13A A57G U132C: 0.38; for U9A U26C U52C A141G: 1.53; for U9A G54U A59U U81C U130C: 0.24. In the case of G7U U29C A42G U143C, the self-cleavage was 1.33. Regarding A6U G25A A117U A136G, the self-cleavage amounted to 1.5. The same measure for U9A U20A U132A: 1.22.

Consider A6U U13C A64U U73C, for which the self-cleavage came to 0.56. As to U9A U13G U102A, the self-cleavage came out at 1.89.

With A6G U12G A117G, the self-cleavage was determined as 2.3. To A6U U62C U91C U109A belongs 0.14. To A6G U23A U46C A107G U109C belongs 0.66; to A6U G41C A50G U132C, 0.66; to U9A A22G U130G, 1.08. Regarding A6U U29C U39C A67G G74A U96A A129G, the self-cleavage is 0.27. Take U9A U39C A64U A121U: the self-cleavage came out at 0.3.

For U9A A22U C51U U100C, the self-cleavage amounted to 1.23.

For the variant U9A U46C U85C C101U, the self-cleavage amounted to 0.21.

For the variant U9A A107G G135U, the self-cleavage is 1.19.

With U9A U47A A121G, the self-cleavage stood at 0.92.

On to G8A A30G A107G A140C, for which the self-cleavage was 0.51. To G7A U9C A42G U115C belongs 1.88; to G7U A59U A141U, 1.03. The same measure for U9A U14C U23C A30G G33A A79C: 0.61.

For the variant A6G U14C A64U C103U G106U, the self-cleavage was 0.45. Consider A6G U52A C90A U130C, for which the self-cleavage stood at 0.06. To A6G U73A A77U belongs 1.14; to A6G U81A A140G, 0.83. To U9A G60U U87A A124U A140G belongs 0.07; to U9A A79G A140G U143C, 0.66. The same measure for A6G U39A U45C U52C U100C: 1.84. With A6U U26C U91A A94U, the self-cleavage came to 0.19. Consider U9A U20A A22G G34A A57G G86A, for which the self-cleavage worked out at 0.13. The same measure for U9A U47C A79G: 0.86. The same measure for A6G U26C C95U U115C: 0.62; for G8U A129G U132C: 2.04; for U9A A107G A121G: 0.74.

In the case of U9A U12C A69U U96C A136U, the self-cleavage was found to be 0.11. To G7A U52C A65G U85C belongs 0; to A6G U14A G48A A65U U130C U143A, 0; to G8A U46C U132C, 1.82. To U9A A64G A79G U100C A121U belongs 0.51. To A6G U26A A43G U73C U85A belongs 0; to U9A A79G U85C, 0; to A6G U87A A129G, 0.43. Regarding U9A A43G U62C A142G, the self-cleavage is 0. Turning to A6U U108C U115C, the self-cleavage is 2.14. As for A6U U14C U29C C63U A64G C103U, the self-cleavage is 0.

For the variant U9A U20C C71U A138G A141G, the self-cleavage is 2.04. As for U9A U46C G86A U102C A117U, the self-cleavage is 0.18. To U9A U45G U62C belongs 0.07. The same measure for U9A U14C U73A U115C U130C: 1.31; for G7A U15C A79G G86A: 0.06. Consider A6U G11A A42U, for which the self-cleavage was found to be 1.01. The same measure for A6U A22G U119A: 0.93. The same measure for A6U U45A C84G U96A A140G: 0.22; for U9A U26C G122A: 1.54; for U9A G60A A77U U100A U104C: 0.05. Turning to U9A G27A A69G A142G, the self-cleavage stood at 0.42. To U9A U47C G86A U91C U104A belongs 0.07. The same measure for U9A U29C A142G: 1.69; for U9A U15C U29A A43G U115C A140G: 0; for A6G U26C U62A: 0.18. In the case of G8A A43G G48U, the self-cleavage was found to be 1.21. In the case of U9A A42G U47C U102C C146U, the self-cleavage was found to be 0. The same measure for G8A U14C A22G: 1.34; for U9A U15C U62C: 0.18; for A6U U9C A121G: 0.79.

As to A6G U132C G137A, the self-cleavage was determined as 0.65.

As for A6U U46A A69G U100A U104A, the self-cleavage turned out to be 0.34.

A6G U15C G127C: the self-cleavage was 0.98.

For the variant U9A U39C A78G U85C A107G, the self-cleavage was 0. To A6U A43G U52A belongs 1.81. The same measure for G7U U20A A24G U87C U100C: 0. The same measure for A6U U13C A22G A117G C118U: 1.01. For the variant G7A A43G U87C, the self-cleavage turned out to be 0.48.

Regarding U9A U45C A78G U112C A136G A142U, the self-cleavage was 1.31. The same measure for A6G U62C U102C: 0; for G8A A24G U130C: 2.51. In the case of G8A A117U G127U, the self-cleavage is 1.13. As for A6G U13A A79G, the self-cleavage turned out to be 0.21. With A6U U87C C95U U132C, the self-cleavage was 0.15.
